{"source": "patent US9957247B2", "about": "“SecA inhibitors and methods of making and using thereof” (Georgia State University Research Foundation, Inc., priority 2012, dated 2018)", "key": {"E. coli NR698 [1]": {"tested_on": "E. coli NR698", "experiment": "microbe, parasite or virus in culture", "conditions": "Escherichia coli, NR698, read-out: MIC, E. coli NR698"}, "S. aureus K2361 (NorA++)": {"tested_on": "S. aureus K2361 (NorA++)", "experiment": "microbe, parasite or virus in culture", "conditions": "Staphylococcus aureus, read-out: Bacteriostatic effect, MIC, NorA++ K2361"}, "S. aureus K2068 (MepA++)": {"tested_on": "S. aureus K2068 (MepA++)", "experiment": "microbe, parasite or virus in culture", "conditions": "Staphylococcus aureus, read-out: Bacteriostatic effect, MIC, MepA++ K2068"}, "S. aureus K2908 (MepA−)": {"tested_on": "S. aureus K2908 (MepA−)", "experiment": "microbe, parasite or virus in culture", "conditions": "Staphylococcus aureus, read-out: Bacteriostatic effect, MIC, MepA− K2908"}, "S. aureus K1758 (NorA−)": {"tested_on": "S. aureus K1758 (NorA−)", "experiment": "microbe, parasite or virus in culture", "conditions": "Staphylococcus aureus, read-out: Bacteriostatic effect, MIC, NorA− K1758"}, "E. coli NR698 [2]": {"tested_on": "E. coli NR698", "experiment": "Plate assay, bacteriostatic effect, E. coli NR698", "type": "cell-based", "conditions": "fluorescein analogues", "procedure": "Plate assay: A 0.5 mL culture of bacterial cells (exponential phase, OD600=0.5) was mixed with LB (4 mL) supplemented with glucose (0.2%) and soft agar (0.75%) and then poured into petri dishes. After the soft agar solidified, test compound (1 mL) was spotted on the surface of the culture. Bacteriostatic effects were judged by the appearance of a clear zone of growth inhibition after overnight incubation at 37° C."}, "E. coli NR698 [3]": {"tested_on": "E. coli NR698", "conditions": "100 μM, one-hour treatment"}}, "data": [{"molecule": "Oc1c(I)cc2c(c1I)Oc1c(cc(I)c(O)c1I)C2C1CCCC1", "note": "[Compound 23b, 9-Cyclopentyl-2,4,5,7-tetraiodo-9H-xanthene-3,6-diol]", "values": [{"measurement": "MIC", "setting": "E. coli NR698 [1]", "result": 1, "unit": "µM"}]}, {"molecule": "CC(C)C1c2cc(I)c(O)c(I)c2Oc2c1cc(I)c(O)c2I", "note": "[Compound 23d, 2,4,5,7-Tetraiodo-9-isopropyl-9H-xanthene-3,6-diol]", "values": [{"measurement": "MIC", "setting": "E. coli NR698 [1]", "result": 4, "unit": "µM"}]}, {"molecule": "Oc1c(Br)cc2c(c1Br)Oc1c(cc(Br)c(O)c1Br)C2C1CCCC1", "note": "[Compound 23a, 2,4,5,7-Tetrabromo-9-cyclopentyl-9H-xanthene-3,6-diol]", "values": [{"measurement": "MIC", "setting": "E. coli NR698 [1]", "result": 2, "unit": "µM"}]}, {"molecule": "CCCCCCC1c2ccc(O)cc2Oc2cc(O)ccc21", "note": "[SCA-50]", "values": [{"measurement": "MIC", "setting": "S. aureus K2361 (NorA++)", "result": 3.7, "unit": "mg/L"}, {"measurement": "MIC", "setting": "S. aureus K2068 (MepA++)", "result": 3.7, "unit": "mg/L"}, {"measurement": "MIC", "setting": "S. aureus K2908 (MepA−)", "result": 3.7, "unit": "mg/L"}, {"measurement": "MIC", "setting": "S. aureus K1758 (NorA−)", "result": 3.7, "unit": "mg/L"}]}, {"molecule": "O=C(O)c1c(Cl)c(Cl)c(Cl)c(Cl)c1-c1c2cc(I)c(=O)c(I)c-2oc2c(I)c(O)c(I)cc12", "note": "[RB, Rose Bengal]", "values": [{"measurement": "MIC", "setting": "E. coli NR698 [1]", "result": 5, "unit": "µM"}, {"measurement": "MIC values, plate assays", "setting": "E. coli NR698 [2]", "result": "micromolar range"}, {"measurement": "Decrease of cell survival (CFU)", "setting": "E. coli NR698 [3]", "result": "about 10 log units"}, {"measurement": "MIC", "setting": "S. aureus K2361 (NorA++)", "result": 34.6, "unit": "mg/L"}, {"measurement": "MIC", "setting": "S. aureus K2068 (MepA++)", "result": 17.5, "unit": "mg/L"}, {"measurement": "MIC", "setting": "S. aureus K2908 (MepA−)", "result": 10.6, "unit": "mg/L"}, {"measurement": "MIC", "setting": "S. aureus K1758 (NorA−)", "result": 22.3, "unit": "mg/L"}]}, {"molecule": "Oc1cc2c(cc1I)C(C1CCCC1)c1cc(I)c(O)c(I)c1O2", "note": "(centres unmarked) [Compound 23c]", "values": [{"measurement": "MIC", "setting": "E. coli NR698 [1]", "result": 6, "unit": "µM"}]}, {"molecule": "O.O=C([O-])c1ccccc1-c1c2cc(I)c(=O)c(I)c-2oc2c(I)c([O-])c(I)cc12.[Na+].[Na+]", "note": "[EB, Erythrosin B]", "values": [{"measurement": "MIC values, plate assays", "setting": "E. coli NR698 [2]", "result": "micromolar range"}]}, {"molecule": "CCCCCCC1c2ccc(O)cc2Oc2cc(O)ccc21", "note": "[Compound 22c, 9-Hexyl-9H-xanthene-3,6-diol]", "values": [{"measurement": "MIC", "setting": "E. coli NR698 [1]", "result": 19, "unit": "µM"}]}, {"molecule": "CC(C)C1c2ccc(O)cc2Oc2cc(O)ccc21", "note": "[Compound 22b, 9-Isopropyl-9H-xanthene-3,6-diol]", "values": [{"measurement": "MIC", "setting": "E. coli NR698 [1]", "result": 90, "unit": "µM"}]}, {"molecule": "Oc1ccc2c(c1)Oc1cc(O)ccc1C2C1CCCC1", "note": "[SCA-41]", "values": [{"measurement": "MIC", "setting": "S. aureus K2361 (NorA++)", "result": 11.8, "unit": "mg/L"}, {"measurement": "MIC", "setting": "S. aureus K2068 (MepA++)", "result": 11.8, "unit": "mg/L"}, {"measurement": "MIC", "setting": "S. aureus K2908 (MepA−)", "result": 14.1, "unit": "mg/L"}, {"measurement": "MIC", "setting": "S. aureus K1758 (NorA−)", "result": 14.1, "unit": "mg/L"}]}, {"molecule": "Oc1ccc2c(c1)Oc1cc(O)ccc1C2C1CCCC1", "note": "[Compound 22a, 9-Cyclopentyl-9H-xanthene-3,6-diol]", "values": [{"measurement": "MIC", "setting": "E. coli NR698 [1]", "result": 45, "unit": "µM"}]}, {"molecule": "Dinitrofluorescein [DN]", "values": [{"measurement": "MIC values, plate assays", "setting": "E. coli NR698 [2]", "result": "millimolar range"}]}, {"molecule": "Oc1ccc2c(c1)Oc1cc(O)ccc1C2C1CCCCC1", "note": "[Compound 22d, 9-Cyclohexyl-9H-xanthene-3,6-diol]", "values": [{"measurement": "MIC", "setting": "E. coli NR698 [1]", "result": 25, "unit": "µM"}]}, {"molecule": "O=C([O-])c1ccccc1-c1c2ccc(=O)c(I)c-2oc2c(I)c([O-])ccc12.[Na+].[Na+]", "note": "[DI, Diiodofluorescein, reference compound]", "values": [{"measurement": "MIC values, plate assays", "setting": "E. coli NR698 [2]", "result": "millimolar range"}]}]}
